Measurements taken from the supplement of paper PMC8728848.
The list shows a part of the results.

Legend:
Assay in all cases: glycan array binding signal (z-score within array); higher = stronger binding
Settings in all cases: glycan notation: IUPAC condensed, linker removed
[1] = molecular target: Neu5Ac(a2-6)Gal(b1-4)GlcNAc(b1-3)Gal(b1-3)GlcNAc
Summary of the method: (§1)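 Glycan array data came from 3228 arrays in the Consortium for Functional Glycomics database, and only arrays with an available protein sequence were kept. Glycan names were put into IUPAC-condensed notation, and columns mapping to the same glycan were averaged. The binding signal is a within-array Z-score, averaged across arrays of one protein sequence run at different concentrations or buffers and across linkers. A negative Z-score can be read as non-binding.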

[2] = molecular target: Neu5Ac(a2-6)Gal(b1-4)GlcNAc(b1-3)Gal(b1-4)GlcNAc
Summary of the method: as §1

[3] = molecular target: Neu5Ac(a2-6)Gal(b1-4)GlcNAc(b1-3)Gal(b1-4)GlcNAc(b1-2)Man(a1-3)[Neu5Ac(a2-6)Gal(b1-4)GlcNAc(b1-3)Gal(b1-4)GlcNAc(b1-2)Man(a1-6)]GalNAc
Summary of the method: as §1

[4] = molecular target: Neu5Ac(a2-6)Gal(b1-4)GlcNAc(b1-3)Gal(b1-4)GlcNAc(b1-3)Gal(b1-4)GlcNAc
Summary of the method: as §1

[5] = molecular target: Neu5Ac(a2-6)Gal(b1-4)GlcNAc(b1-3)Gal(b1-4)GlcNAc(b1-3)Gal(b1-4)GlcNAc(b1-2)Man(a1-3)[Neu5Ac(a2-6)Gal(b1-4)GlcNAc(b1-3)Gal(b1-4)GlcNAc(b1-3)Gal(b1-4)GlcNAc(b1-2)Man(a1-6)]GalNAc
Summary of the method: as §1

[6] = molecular target: Neu5Ac(a2-6)Gal(b1-4)GlcNAc(b1-3)Gal(b1-4)GlcNAc(b1-3)GalNAc
Summary of the method: as §1

[7] = molecular target: Neu5Ac(a2-6)Gal(b1-4)GlcNAc(b1-3)Gal(b1-4)GlcNAc(b1-3)[Neu5Ac(a2-6)Gal(b1-4)GlcNAc(b1-3)Gal(b1-4)GlcNAc(b1-6)]GalNAc
Summary of the method: as §1

[8] = molecular target: Neu5Ac(a2-6)Gal(b1-4)GlcNAc(b1-3)Gal(b1-4)GlcNAc(b1-6)[Gal(b1-3)]GalNAc
Summary of the method: as §1

[9] = molecular target: Neu5Ac(a2-6)Gal(b1-4)GlcNAc(b1-3)Gal(b1-4)[Fuc(a1-3)]GlcNAc(b1-3)Gal(b1-4)[Fuc(a1-3)]GlcNAc
Summary of the method: as §1

[10] = molecular target: Neu5Ac(a2-6)Gal(b1-4)GlcNAc(b1-3)GalNAc
Summary of the method: as §1

[11] = molecular target: Neu5Ac(a2-6)Gal(b1-4)GlcNAc(b1-3)[Neu5Ac(a2-6)Gal(b1-4)GlcNAc(b1-6)]GalNAc
Summary of the method: as §1

[12] = molecular target: Neu5Ac(a2-6)Gal(b1-4)GlcNAc(b1-6)GalNAc
Summary of the method: as §1

[13] = molecular target: Neu5Ac(a2-6)Gal(b1-4)GlcNAc(b1-6)[Gal(b1-3)GlcNAc(b1-3)]Gal(b1-4)Glc
Summary of the method: as §1

[14] = molecular target: Neu5Ac(a2-6)Gal(b1-4)GlcNAc(b1-6)[Gal(b1-3)]GalNAc
Summary of the method: as §1

[15] = molecular target: Neu5Ac(a2-6)Gal(b1-4)GlcNAc6S
Summary of the method: as §1

Neu5Ac(a2-6)GalNAc = molecular target: Neu5Ac(a2-6)GalNAc
Summary of the method: as §1

[16] = molecular target: Neu5Ac(a2-6)GalNAc(b1-4)GlcNAc
Summary of the method: as §1

[17] = molecular target: Neu5Ac(a2-6)GalNAc(b1-4)GlcNAc6S
Summary of the method: as §1

[18] = molecular target: Neu5Ac(a2-6)GlcNAc(b1-4)GlcNAc
Summary of the method: as §1

[19] = molecular target: Neu5Ac(a2-6)GlcNAc(b1-4)GlcNAc(b1-4)GlcNAc
Summary of the method: as §1

Neu5Ac(a2-8)Neu5Ac = molecular target: Neu5Ac(a2-8)Neu5Ac
Summary of the method: as §1

[20] = molecular target: Neu5Ac(a2-8)Neu5Ac(a2-3)Gal(b1-3)GalNAc(b1-4)[Neu5Ac(a2-3)]Gal(b1-4)Glc
Summary of the method: as §1

[21] = molecular target: Neu5Ac(a2-8)Neu5Ac(a2-3)Gal(b1-3)GalNAc(b1-4)[Neu5Ac(a2-8)Neu5Ac(a2-3)]Gal(b1-4)Glc
Summary of the method: as §1

[22] = molecular target: Neu5Ac(a2-8)Neu5Ac(a2-3)Gal(b1-4)Glc
Summary of the method: as §1

[23] = molecular target: Neu5Ac(a2-8)Neu5Ac(a2-3)Gal(b1-4)GlcNAc
Summary of the method: as §1

[24] = molecular target: Neu5Ac(a2-8)Neu5Ac(a2-3)[Gal(b1-3)GalNAc(b1-4)]Gal(b1-4)Glc
Summary of the method: as §1

[25] = molecular target: Neu5Ac(a2-8)Neu5Ac(a2-3)[GalNAc(b1-4)]Gal(b1-4)Glc
Summary of the method: as §1

[26] = molecular target: Neu5Ac(a2-8)Neu5Ac(a2-8)Neu5Ac
Summary of the method: as §1

[27] = molecular target: Neu5Ac(a2-8)Neu5Ac(a2-8)Neu5Ac(a2-3)Gal(b1-4)Glc
Summary of the method: as §1

[28] = molecular target: Neu5Ac(a2-8)Neu5Ac(a2-8)Neu5Ac(a2-3)[Gal(b1-3)GalNAc(b1-4)]Gal(b1-4)Glc
Summary of the method: as §1

[29] = molecular target: Neu5Ac(a2-8)Neu5Ac(a2-8)Neu5Ac(a2-3)[GalNAc(b1-4)]Gal(b1-4)Glc
Summary of the method: as §1

[30] = molecular target: Neu5Ac(a2-8)Neu5Ac(a2-8)Neu5Ac(a2-8)Neu5Ac(a2-3)[GalNAc(b1-4)]Gal(b1-4)Glc
Summary of the method: as §1

[31] = molecular target: Neu5Ac(a2-8)Neu5Gc(a2-3)Gal(b1-4)GlcNAc
Summary of the method: as §1

Neu5Ac(b1-6)GalNAc = molecular target: Neu5Ac(b1-6)GalNAc
Summary of the method: as §1

[32] = molecular target: Neu5Ac(b2-6)Gal(b1-4)GlcNAc
Summary of the method: as §1

Neu5Ac(b2-6)GalNAc = molecular target: Neu5Ac(b2-6)GalNAc
Summary of the method: as §1

[33] = molecular target: Neu5Ac9Ac(a2-3)Gal(b1-3)GlcNAc
Summary of the method: as §1

[34] = molecular target: Neu5Ac9Ac(a2-3)Gal(b1-4)GlcNAc
Summary of the method: as §1

[35] = molecular target: Neu5Ac9Ac(a2-6)Gal(b1-4)GlcNAc
Summary of the method: as §1

[36] = molecular target: Neu5Gc(a2-3)Gal(b1-3)GlcNAc
Summary of the method: as §1

[37] = molecular target: Neu5Gc(a2-3)Gal(b1-3)[Fuc(a1-4)]GlcNAc
Summary of the method: as §1

Neu5Gc(a2-3)Gal(b1-4)Glc = molecular target: Neu5Gc(a2-3)Gal(b1-4)Glc
Summary of the method: as §1

[38] = molecular target: Neu5Gc(a2-3)Gal(b1-4)GlcNAc
Summary of the method: as §1

[39] = molecular target: Neu5Gc(a2-3)Gal(b1-4)GlcNAc(b1-3)Gal(b1-4)GlcNAc(b1-2)Man(a1-3)[Neu5Gc(a2-3)Gal(b1-4)GlcNAc(b1-3)Gal(b1-4)GlcNAc(b1-2)Man(a1-6)]Man(b1-4)GlcNAc(b1-4)GlcNAc
Summary of the method: as §1

[40] = molecular target: Neu5Gc(a2-3)Gal(b1-4)[Fuc(a1-3)]GlcNAc
Summary of the method: as §1

[41] = molecular target: Neu5Gc(a2-6)Gal(b1-4)GlcNAc
Summary of the method: as §1

Neu5Gc(a2-6)GalNAc = molecular target: Neu5Gc(a2-6)GalNAc
Summary of the method: as §1

[42] = molecular target: Neu5Gc(a2-8)Neu5Ac(a2-3)Gal(b1-4)GlcNAc
Summary of the method: as §1

[43] = molecular target: Neu5Gc(a2-8)Neu5Gc(a2-3)Gal(b1-4)GlcNAc
Summary of the method: as §1

[44] = molecular target: Neu5Gc(a2-8)Neu5Gc(a2-3)Gal(b1-4)GlcNAc(b1-3)Gal(b1-4)GlcNAc
Summary of the method: as §1

[45] = molecular target: Neu5Gc(a2-8)Neu5Gc(a2-6)Gal(b1-4)GlcNAc
Summary of the method: as §1

[46] = molecular target: Neu5Gc(b2-6)Gal(b1-4)GlcNAc
Summary of the method: as §1

B1: ECA (Erythrina cristagalli), P83410 (protein)
chain: VETISFSFSEFEPGNDNLTLQGAALITQSGVLQLTKINQNGMPAWDSTGRTLYTKPVHMWDSTTGTVASFETRFSFSIEQPYTRPLPADGLVFFMGPTKSKPAQGYGYLGVFNNSKQDNSYQTLAVEFDTFSNPWDPPQVPHIGIDVNSIRSIKTQPFQLDNGQVANVVIKYDAPSKILHVVLVYPSSGAIYTIAEIVDVKQVLPDWVDVGLSGATGAQRDAAETHDVYSWSFQASLPE
For B1, the “glycan array binding signal (z-score)” value [1] was -0.449, the “glycan array binding signal (z-score)” value [2] was -0.296 and the “glycan array binding signal (z-score)” value [3] was 0.504. The “glycan array binding signal (z-score)” value [4] was -0.578, the “glycan array binding signal (z-score)” value [5] was 5.2 and the “glycan array binding signal (z-score)” value [6] was -0.153. For the same binder, the “glycan array binding signal (z-score)” value [7] was 3.23, the “glycan array binding signal (z-score)” value [8] was 0.104 and the “glycan array binding signal (z-score)” value [9] was -0.265. For the same binder, the “glycan array binding signal (z-score)” value [10] was -0.045, the “glycan array binding signal (z-score)” value [11] was -0.511 and the “glycan array binding signal (z-score)” value [12] was -0.044. For the same binder, the “glycan array binding signal (z-score)” value [13] was -0.061, the “glycan array binding signal (z-score)” value [14] was 0.807 and the “glycan array binding signal (z-score)” value [15] was -0.295. The “glycan array binding signal (z-score)” value (Neu5Ac(a2-6)GalNAc) was -0.295, the “glycan array binding signal (z-score)” value [16] was -0.27 and the “glycan array binding signal (z-score)” value [17] was -0.297. For the same binder, the “glycan array binding signal (z-score)” value [18] was -0.33, the “glycan array binding signal (z-score)” value [19] was -0.377 and the “glycan array binding signal (z-score)” value (Neu5Ac(a2-8)Neu5Ac) was -0.151. The “glycan array binding signal (z-score)” value [20] was 0.193, the “glycan array binding signal (z-score)” value [21] was -0.352 and the “glycan array binding signal (z-score)” value [22] was -0.341. The “glycan array binding signal (z-score)” value [23] was -0.418, the “glycan array binding signal (z-score)” value [24] was -0.481 and the “glycan array binding signal (z-score)” value [25] was -0.267. For the same binder, the “glycan array binding signal (z-score)” value [26] was -0.233, the “glycan array binding signal (z-score)” value [27] was -0.351 and the “glycan array binding signal (z-score)” value [28] was 0.194. For the same binder, the “glycan array binding signal (z-score)” value [29] was -0.05, the “glycan array binding signal (z-score)” value [30] was -0.254 and the “glycan array binding signal (z-score)” value [31] was -0.431. For the same binder, the “glycan array binding signal (z-score)” value (Neu5Ac(b1-6)GalNAc) was -0.273, the “glycan array binding signal (z-score)” value [32] was -0.088 and the “glycan array binding signal (z-score)” value (Neu5Ac(b2-6)GalNAc) was -0.102. For the same binder, the “glycan array binding signal (z-score)” value [33] was -0.113, the “glycan array binding signal (z-score)” value [34] was 0.603 and the “glycan array binding signal (z-score)” value [35] was -0.277. For the same binder, the “glycan array binding signal (z-score)” value [36] was -0.312, the “glycan array binding signal (z-score)” value [37] was -0.164 and the “glycan array binding signal (z-score)” value (Neu5Gc(a2-3)Gal(b1-4)Glc) was -0.24. The “glycan array binding signal (z-score)” value [38] was -0.327, the “glycan array binding signal (z-score)” value [39] was -0.407 and the “glycan array binding signal (z-score)” value [40] was -0.344. For the same binder, the “glycan array binding signal (z-score)” value [41] was -0.221, the “glycan array binding signal (z-score)” value (Neu5Gc(a2-6)GalNAc) was -0.262 and the “glycan array binding signal (z-score)” value [42] was -0.267. For the same binder, the “glycan array binding signal (z-score)” value [43] was -0.361, the “glycan array binding signal (z-score)” value [44] was -0.173 and the “glycan array binding signal (z-score)” value [45] was -0.091. The “glycan array binding signal (z-score)” value [46] was -0.247.
